Laboratory results from patent US9340769B2 (priority 2008, dated 2016).

B1: sialidase: recombinant P. acnes cell wall-anchored sialidase (gi|50843035) 6×NH fusion protein; enzyme and, with Freund adjuvants, vaccine (protein)
chain: MTLTTKLSALAIAGIMAVIGAPMVTQSAMASGRAPAPDAATTQPKLVTGDITSTDQSGTHLFFGKNIVRNAKGAIMKVDRTWPAAVPAPLPDVRADSSTRMLLGPVVDLAVNEHPAGVFYRIPALATASNGDLLASYDLRPGSAADAPNPNSIVQRRSRDNGRTRGPQTVIHAGTLGRRKVGYSDPSYLVDPATGHILNFHVKSYDRGFATSEVGTDPDDRHVLHAEVSTSTDNGHTWTYRDITREITPDPTTRTRFVASGQGIALLHGPHAGGLIAQMTVRNSVGQQAQSIYSDDHGITWHAGNPVGRMMDENKVVELSDGTLMLNSRDAARSGRRKVAYSHDGGLTWGPVKLVDDLIDPTNNAQIIRAYPNARAGSAKARILLFTNARNATERVNGTLSVSCDDGRTWVSHQTYMPGEVGYTTAAVQSDGALGVLWERDGIRYSTIPMGWLNSVCPVAPSGRPTSGEPTSGTSLPLTATPSGSLHGGASSRPTSLPHTGD
modifications: left off: small tags and cut ends

Tests used:
[1] = tested on: RAW264.7 cells co-cultured with P. acnes; experiment: P. acnes-mediated cell death: neutralization assay / ASMase inhibitor, RAW264.7; conditions: desipramine 10 μM, 14 hr; 45.4% with PBS vehicle
P. acnes = experiment: Tissue chamber model: MIP-2 in tissue chamber fluid by ELISA after P. acnes injection; conditions: sialidase-immunized vs GFP-immunized; 3 days after P. acnes 10^7 CFU

Molecule | P. acnes-induced cell death, reduced by (RAW264.7) [1] [%] | P. acnes-induced increase of MIP-2 cytokine, reduced by (P. acnes) [%]
CNCCCN1c2ccccc2CCc2ccccc21 [desipramine] | 30.6 | 
B1 |  | 61
